# Test results taken from PubChem BioAssay AID504332 (National Center for Advancing Translational Sciences (NCATS), 2011).
# Screen size: about 350,000 compounds; about 31,000 (8.9%) were called active. This list was built around the results that the source calls inconclusive (neither active nor inactive); the mix of calls is not that of the screen. Calls come from the whole dose curve; as a rule, active = well fitted inhibition curve with a large enough effect; inconclusive = small, poorly fitted or top-dose-only effect; inactive = no such curve, though single readings can be large or run the other way. A potency beside an inconclusive call is a rough fit, not a confirmed value.
# Target: Histone-lysine N-methyltransferase EHMT2 (Homo sapiens) (UniProt Q96KQ7)
# Experiment: qHTS Assay for Inhibitors of Histone Lysine Methyltransferase G9a; note: nearly all actives have a fitted effect of over 75% in size
# Settings: G9a H3K9 monomethylation, AlphaScreen, 2 h; activity, negative = inhibition: at 59 µM (top of the series) unless noted
# In short: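 Compounds were preincubated with 20 nM G9a for 15 min, after which biotinylated H3K9 peptide (500 nM) and SAM (20 uM) started a 2 h room-temperature reaction. Monomethylated product was quantified by antibody-based AlphaScreen chemiluminescence.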
# % is set by controls: 0 for no effect and ±100 for the full control effect; potency is the fitted concentration of half-maximal effect; tags give direction and shape of the fitted curve.
# Sequence of UniProt Q96KQ7 (Q96KQ7 whole entry, looked up): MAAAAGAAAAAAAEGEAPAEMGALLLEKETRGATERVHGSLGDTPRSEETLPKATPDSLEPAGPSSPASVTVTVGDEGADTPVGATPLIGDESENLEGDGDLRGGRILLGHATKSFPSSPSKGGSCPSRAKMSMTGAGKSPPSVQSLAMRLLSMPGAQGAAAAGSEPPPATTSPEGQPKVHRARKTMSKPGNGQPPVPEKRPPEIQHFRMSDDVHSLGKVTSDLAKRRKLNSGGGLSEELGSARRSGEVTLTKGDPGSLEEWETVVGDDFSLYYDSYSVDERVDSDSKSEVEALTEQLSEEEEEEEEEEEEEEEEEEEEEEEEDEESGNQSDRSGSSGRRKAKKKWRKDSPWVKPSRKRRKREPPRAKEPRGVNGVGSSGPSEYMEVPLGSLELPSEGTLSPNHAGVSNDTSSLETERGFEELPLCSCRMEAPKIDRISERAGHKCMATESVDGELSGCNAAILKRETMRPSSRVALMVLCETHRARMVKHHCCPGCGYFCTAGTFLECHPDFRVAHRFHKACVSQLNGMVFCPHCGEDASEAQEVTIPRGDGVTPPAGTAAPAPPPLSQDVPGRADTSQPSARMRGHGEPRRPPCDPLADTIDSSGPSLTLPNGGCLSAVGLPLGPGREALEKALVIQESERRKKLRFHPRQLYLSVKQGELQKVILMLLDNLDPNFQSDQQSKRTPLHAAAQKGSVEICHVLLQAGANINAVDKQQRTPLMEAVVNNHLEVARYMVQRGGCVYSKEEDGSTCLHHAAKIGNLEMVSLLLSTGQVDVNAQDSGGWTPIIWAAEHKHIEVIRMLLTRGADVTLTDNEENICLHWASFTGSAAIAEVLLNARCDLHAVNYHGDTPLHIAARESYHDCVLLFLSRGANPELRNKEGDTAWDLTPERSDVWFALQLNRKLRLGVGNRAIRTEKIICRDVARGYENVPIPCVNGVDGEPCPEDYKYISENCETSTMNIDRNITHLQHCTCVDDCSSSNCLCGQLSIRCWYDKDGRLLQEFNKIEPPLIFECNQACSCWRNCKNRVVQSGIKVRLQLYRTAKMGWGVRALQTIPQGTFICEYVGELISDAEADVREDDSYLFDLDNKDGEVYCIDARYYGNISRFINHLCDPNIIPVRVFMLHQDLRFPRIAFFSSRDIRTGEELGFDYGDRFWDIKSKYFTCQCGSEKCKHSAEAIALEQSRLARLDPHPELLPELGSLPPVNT
SMILES,Potency,"activity, negative = inhibition"
CCN(Cc1ccccc1)C(=O)Cn1c(=O)n(CC(=O)N2CCCCC2)c(=O)c2sccc21,"inconclusive: 70.8 µM [inhibitor, single point]",
CCOC(=O)C1CCCN(C(=O)c2ccc(CS(=O)(=O)c3ccc(C)cc3)o2)C1 (stereo not drawn),active: 50.1 µM,
CCC(C(=O)OCC(=O)Nc1ccc(SC(F)F)cc1)c1ccccc1 (stereo not drawn),,inactive: 84.7%
O=C(CCN=C1NS(=O)(=O)c2ccccc21)OCC(=O)c1ccccc1Cl,active: 56.2 µM,
CC(C)(C)OC(=O)N1CCC[C@H]1c1nnc(SCc2ccccc2)o1,"inconclusive: 56.2 µM [inhibitor, partial curve, poor fit]",
COc1ccc(NCc2nn(CC(=O)c3ccc(Br)cc3)c3[n+]2CCCCC3)cc1,active: 35.5 µM,
COc1ccc(-n2c(SCC(=O)Nc3nccs3)nc3sc4c(c3c2=O)CCN(C)C4)cc1,"inconclusive: 50.1 µM [inhibitor, partial curve, poor fit]",
CC(C)(C)NC(=O)c1ccc(Sc2ccccc2)c([N+](=O)[O-])c1,,inconclusive: -75.1% [inhibitor]
CCN(CC)S(=O)(=O)c1ccc(C(=O)NCC2(N3CCOCC3)CCCCC2)cc1,,inactive: 35.7% [at 12.7 µM]
COc1ccc(N2CCN(C(=O)Nc3cn(CC(C)C)c(=O)c4ccccc34)CC2)cc1,"inconclusive: 4.47 µM [inhibitor, partial curve, poor fit]",
COc1ccc(/C=C/C(=O)Nc2ccc3nc4n(c(=O)c3c2)CCCC4)cc1OC,,inactive: -7.71% [at 102 µM]
Cc1csc(NC(=O)c2c(-c3ccccc3)noc2C)n1,"inconclusive: 50.1 µM [inhibitor, partial curve, poor fit]",
CCOC(=O)C1(CC)NC(c2ccco2)C2C(=O)N(c3ccc(C)cc3)C(=O)C21 (stereo not drawn),"inconclusive: 1.58 µM [inhibitor, partial curve, poor fit]",
C#CCOCCOCCOCCNc1nc(N2CCN(C(=O)CCCCCCCCCCNC(=O)[C@H]([C@@H](C)CC)n3cc(CCCCCN)nn3)CC2)nc(N2CCN(C(=O)CCCCCCCCCCNC(=O)[C@H]([C@@H](C)CC)n3cc(CCCCN=C(N)N)nn3)CC2)n1,,inactive: 14.1% [at 2.33 µM]
COCCNC(=O)CN(c1ccc(OC)c(OC)c1)S(=O)(=O)c1ccc(C)cc1,"inconclusive: 70.8 µM [inhibitor, single point]",
C/C(CC(=O)Nc1ccc2c(c1)OCCO2)=N\NC(=O)C(=O)Nc1ccccc1C,"inconclusive: 39.8 µM [inhibitor, partial curve, poor fit]",
COc1ccc(N2CCN(C(=O)CSc3nnc(CNc4ccccc4)o3)CC2)cc1,"inconclusive: 20 µM [inhibitor, single point]",
O=C(Cc1ccc(Cl)cc1)Nc1ccc(S(=O)(=O)N2CCOCC2)cc1,"inconclusive: 89.1 µM [inhibitor, single point]",
COc1cc(C2Nc3ccc4ncccc4c3C3=C2C(=O)CCC3)cc(OC)c1O (stereo not drawn),"inconclusive: 7.94 µM [inhibitor, partial curve]",

SMILES,Potency,"activity, negative = inhibition"
COc1ccc(OC)c(NC(=O)CC2C(=O)NCCN2C(=O)c2ccccc2)c1 (stereo not drawn),,inactive: -8.72% [at 102 µM]
COc1ccc(N=Nc2cc(C)ccc2O)cc1,"inconclusive: 25.1 µM [inhibitor, full curve, poor fit]",
COc1ccccc1NCCC(=O)OCC(=O)NC1CCCC(C)C1C (stereo not drawn),"inconclusive: 22.4 µM [inhibitor, single point]",
Cc1nn(-c2ccccc2)c(OC(=O)c2ccccc2)c1S(=O)(=O)c1ccccc1,"inconclusive: 25.1 µM [inhibitor, partial curve, poor fit]",
O=C(Nc1ccccc1C(F)(F)F)N1CCOc2ccc(Cl)cc21,"inconclusive: 6.31 µM [inhibitor, partial curve, poor fit]",
Cc1ccc(N2C(=O)CS(=O)(=O)C23C(=O)Nc2ccccc23)cc1C (stereo not drawn),active: 15.8 µM,
CCn1c(C)c(C2=CCN(S(=O)(=O)c3ccccc3)CC2)c2ccccc21,active: 39.8 µM,
O=C(CSc1nc2ccccc2s1)Nc1ccc(Cl)c(S(=O)(=O)N2CCOCC2)c1,"inconclusive: 39.8 µM [inhibitor, single point]",
CC(=O)N[C@@H](Cc1c[nH]c2ccccc12)C(=O)OCC(=O)Nc1ccc(Cl)c(S(=O)(=O)N(C)C)c1,"inconclusive: 50.1 µM [inhibitor, partial curve, poor fit]",
CN1CCN(S(=O)(=O)c2ccc(C(F)(F)F)cc2)C(c2ccccc2)C1 (stereo not drawn),,inactive: 14.5% [at 2.33 µM]
CSc1nc(-c2ccccc2)nc(N2CCN(C)CC2)c1C(C)=O,"inconclusive: 22.4 µM [inhibitor, single point]",
COc1ccc(-c2nn(CCC(=O)O)cc2/C=N/NC(N)=S)cc1,"inconclusive: 89.1 µM [inhibitor, partial curve, poor fit]",
Cc1ccccc1Cn1ccn(-c2ccc(F)c(F)c2)c(=O)c1=O,"inconclusive: 28.2 µM [inhibitor, partial curve, poor fit]",
O=C(Cc1sc(Nc2ccccc2)nc1-c1ccccc1)NCc1ccccc1,active: 50.1 µM,
COc1ccc(-c2cc(C(F)(F)F)nc(SCC(=O)N(C)Cc3cn(C)nc3C)n2)cc1OC,"inconclusive: 56.2 µM [inhibitor, partial curve, poor fit]",
Cc1ccc(S(=O)(=O)NCCC(=O)Nc2ncccc2O)cc1C,"inconclusive: 79.4 µM [inhibitor, single point]",
O=C1[C@@H]2Cc3c([nH]c4ccccc34)C(c3cccc(Br)c3)N2C(=O)CN1C1CCN(Cc2ccccc2)CC1 (stereo partly drawn),"inconclusive: 79.4 µM [inhibitor, single point]",
COc1cc([N+](=O)[O-])cc([N+](=O)[O-])c1NC(=O)N1CCOCC1,active: 50.1 µM,
CCN(CC)CCCNC(CC(=O)Nc1cccc([N+](=O)[O-])c1)C(=O)O (stereo not drawn),"inconclusive: 28.2 µM [inhibitor, single point]",
